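Grown in 96-well plates, cells were treated for 48 hours with each compound at five concentrations. Insufficient inhibition: endpoint recorded as highest concentration tested. At the GI50, growth is halved. At the TGI there is no net growth.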
System: NCI-H322M lung
Experiment: NCI tumour cell line growth inhibition, 48 h

SMILES	GI50 [µM]	TGI [µM]
C/C(=C(/c1ccc(O)cc1)c1ccc(OCCN2CCCCCC2)cc1)c1ccccc1	> 100	> 100
CNC(=O)c1cc(-n2ccc3cc(NC(=O)Nc4ccc(N5CCN(C)CC5)c(C(F)(F)F)c4)ccc32)ccn1	3.69	7.92
O=C1Nc2cc(Cl)ccc2/C1=C\c1ccc(OCc2ccc(Br)cc2F)cc1	3.01	15.8
C[C@H](Nc1ncnc2ccc(-c3cnc(Cl)c(NS(C)(=O)=O)c3)cc12)c1ccccc1	1.23	10.8

Reference: PubChem BioAssay (NCI)
